Test results as given in the supplement of paper PMC7826260.
The list shows a part of the results. One pool of 16,384 single-stranded DNAs met each Rep nickase domain in vitro at 3 µM enzyme and 37 °C for 1 h; the strands have 90 letters, of which the middle is given. Uncut reads are compared with the no-enzyme pool on a log2 scale; the lower, the more was cut; hits are not called. The scaling is to total reads, so uncut sequences can rise above 0 when many others are cut.

Assays:
Assay in all cases: uncleaved DNA left, log2 of reads against the no-enzyme library (log2 ratio); higher = less cleavage (more negative = more Rep cleavage of the k-mer); sequences stand for … in CTCGTCCG…ACCGGAGA
[1] = tested on: T1, Rep nickase domain of Muscovy duck circovirus
T1 sequence (protein, residues 1-111, tag omitted): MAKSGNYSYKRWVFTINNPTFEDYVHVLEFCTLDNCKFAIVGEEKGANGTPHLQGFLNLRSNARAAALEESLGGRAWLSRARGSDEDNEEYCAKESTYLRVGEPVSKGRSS
Description: (§1)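 A pool of 90-nt single-stranded DNAs with seven random bases just before the constant AC of the nick site (name = the seven bases) was cut by 3 µM recombinant His6-SUMO-tagged Rep nickase domain (300 nM DNA, 50 mM HEPES pH 8.0, 50 mM NaCl, 1 mM MnCl2, 1 h, 37 °C, three replicates). Uncut DNA was amplified and sequenced.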

[2] = tested on: T2, Rep nickase domain of banana bunchy top virus
T2 sequence (protein, residues 1-94, tag omitted): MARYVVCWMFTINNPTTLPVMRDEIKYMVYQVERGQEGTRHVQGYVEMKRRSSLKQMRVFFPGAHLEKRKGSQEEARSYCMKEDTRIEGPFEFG
Description: as §1

[3] = tested on: T3, Rep nickase domain of cabbage leaf curl virus
T3 sequence (protein, residues 1-116, tag omitted): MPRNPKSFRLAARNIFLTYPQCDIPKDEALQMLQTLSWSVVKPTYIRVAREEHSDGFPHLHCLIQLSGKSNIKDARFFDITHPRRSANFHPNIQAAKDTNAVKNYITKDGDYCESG
Description: as §1

[4] = tested on: T4, Rep nickase domain of chickpea chlorotic dwarf virus
T4 sequence (protein, residues 1-124, tag omitted): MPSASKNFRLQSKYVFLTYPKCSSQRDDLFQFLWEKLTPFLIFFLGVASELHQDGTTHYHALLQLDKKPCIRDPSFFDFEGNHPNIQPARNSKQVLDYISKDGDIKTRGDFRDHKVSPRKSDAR
Description: as §1

[5] = tested on: T5, Rep nickase domain of faba bean necrotic yellows virus
T5 sequence (protein, residues 1-98, tag omitted): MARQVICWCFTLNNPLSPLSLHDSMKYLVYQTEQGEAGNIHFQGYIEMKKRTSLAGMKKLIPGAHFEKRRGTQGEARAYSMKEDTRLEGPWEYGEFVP
Description: as §1

[6] = tested on: T6, Rep nickase domain of maize striate mosaic virus
T6 sequence (protein, residues 1-117, tag omitted): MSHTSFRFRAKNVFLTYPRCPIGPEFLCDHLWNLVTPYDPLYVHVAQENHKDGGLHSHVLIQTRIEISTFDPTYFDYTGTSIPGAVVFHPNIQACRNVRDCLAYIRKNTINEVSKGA
Description: as §1

[7] = tested on: T7, Rep nickase domain of porcine circovirus 2
T7 sequence (protein, residues 2-116, tag omitted): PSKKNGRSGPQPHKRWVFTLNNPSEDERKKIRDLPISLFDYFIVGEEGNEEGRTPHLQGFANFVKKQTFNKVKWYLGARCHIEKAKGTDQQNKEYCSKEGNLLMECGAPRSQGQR
Description: as §1

[8] = tested on: T8, Rep nickase domain of tomato golden mosaic virus
T8 sequence (protein, residues 1-124, tag omitted): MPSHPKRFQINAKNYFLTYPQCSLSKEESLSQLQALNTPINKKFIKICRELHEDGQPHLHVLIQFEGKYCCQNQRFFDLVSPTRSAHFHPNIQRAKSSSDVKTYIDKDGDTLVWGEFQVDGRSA
Description: as §1

[9] = tested on: T9, Rep nickase domain of tomato yellow leaf curl virus
T9 sequence (protein, residues 1-136, tag omitted): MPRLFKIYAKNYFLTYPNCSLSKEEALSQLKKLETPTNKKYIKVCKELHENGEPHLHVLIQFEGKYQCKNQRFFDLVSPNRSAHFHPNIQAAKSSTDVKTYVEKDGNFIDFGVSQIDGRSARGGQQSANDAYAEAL
Description: as §1

[10] = tested on: T10, Rep nickase domain of wheat dwarf virus
T10 sequence (protein, residues 1-137, tag omitted): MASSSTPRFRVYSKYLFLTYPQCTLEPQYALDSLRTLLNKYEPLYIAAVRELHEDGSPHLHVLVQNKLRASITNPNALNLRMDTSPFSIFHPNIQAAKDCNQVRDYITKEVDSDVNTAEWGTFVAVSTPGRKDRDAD
Description: as §1

Sequence | uncleaved DNA left (log2) [1] | uncleaved DNA left (log2) [2] | uncleaved DNA left (log2) [3] | uncleaved DNA left (log2) [4] | uncleaved DNA left (log2) [5] | uncleaved DNA left (log2) [6] | uncleaved DNA left (log2) [7] | uncleaved DNA left (log2) [8] | uncleaved DNA left (log2) [9] | uncleaved DNA left (log2) [10]
CTCGGTG | -0.0775 | -0.0813 | -0.578 | -0.645 | 0.0231 | -0.781 | 0.118 | -0.0662 | -0.0675 | -0.263
CCCTAGT | -1.45 | 0.00836 | -0.267 | -1.06 | -0.00542 | -0.994 | -3.28 | 0.119 | 0.0373 | 0.0409
GGCTGAA | -0.0312 | 0.0266 | 0.406 | 1.24 | 0.106 | 1.56 | -0.00693 | -0.0174 | 0.105 | 0.158
TGGTGCG | 0.0755 | -0.0635 | -0.226 | 1.03 | 0.145 | 0.626 | 0.0733 | 0.0359 | -0.136 | -0.0593
CAGCGGC | -0.0372 | 0.00799 | -0.211 | -0.354 | 0.0717 | -0.702 | 0.0776 | -0.0181 | -0.109 | 0.016
TACACCG | -0.087 | -0.184 | -0.886 | -0.699 | -0.0392 | -1.07 | -0.00193 | -0.19 | -0.181 | -0.134
CAGTTGC | 0.162 | 0.0155 | -0.809 | -0.373 | 0.0916 | -1.06 | 0.027 | -0.131 | 0.104 | 0.0342
CCATAGC | 0.179 | 0.0684 | -0.641 | -0.396 | 0.166 | -1.05 | 0.186 | 0.108 | 0.178 | -0.0785
AAGAGAC | 0.0133 | -0.0254 | 0.346 | 0.915 | 0.00877 | 0.734 | 0.148 | 0.0884 | -0.0786 | 0.0921
GGTGGCG | -0.0204 | -0.104 | -0.541 | 0.55 | 0.0405 | 0.0719 | 0.112 | 0.0711 | -0.158 | -0.15
ACTAATA | -0.171 | -0.056 | -0.321 | -1.58 | -0.0135 | -0.753 | -0.174 | -0.0573 | -0.079 | -0.0756
TATCACC | 0.0448 | 0.0314 | 0.166 | -0.57 | -0.092 | -0.167 | -0.246 | -0.0148 | 0.0126 | 0.00673
ATCATAT | -0.0678 | -0.158 | -0.0262 | -0.925 | -0.0394 | -0.855 | 0.0225 | -0.0822 | -0.105 | -0.00542
GAGTCAT | 0.00673 | -0.00418 | 0.711 | 1.88 | -0.0368 | 2.09 | -3.14 | 0.00749 | 0.0696 | 0.158
TTTCATA | -0.0301 | -0.00186 | 0.049 | -0.669 | 0.0103 | 0.0771 | -0.154 | -0.0597 | -0.0308 | -0.0286
TCCCCCG | -0.209 | -0.116 | -0.826 | -0.481 | -0.193 | -0.991 | -0.246 | -0.191 | -0.152 | -0.155
CCAGTCG | -0.142 | -0.0245 | -0.797 | -0.136 | -0.0374 | -1.03 | -0.0345 | -0.27 | 0.00833 | -0.0777
GTACTCC | -0.0861 | -0.00674 | 0.199 | 0.6 | -0.0192 | 1.55 | 0.0769 | -0.122 | -0.0035 | -0.0279
TCCGATA | -0.00354 | -0.0112 | 0.0245 | -0.416 | 0.0327 | -0.0395 | -0.208 | -0.0377 | -0.0443 | -0.0718
CTCCGCC | -0.0274 | 0.0878 | 0.0532 | 0.119 | 0.141 | -0.194 | -0.000109 | 0.0306 | 0.0041 | -0.0143
TATAGCG | -0.0782 | 0.0127 | -0.63 | 0.712 | 0.0967 | -0.471 | 0.145 | -0.0539 | 0.0128 | -0.126
TATACAA | 0.075 | 0.0179 | 0.084 | -0.671 | 0.0635 | -0.148 | 0.115 | 0.126 | 0.0805 | 0.0948
CTTCGTT | -0.173 | -0.284 | -0.373 | -2.3 | -0.0709 | -1.01 | -0.727 | -0.163 | -0.156 | -0.19
CGACGGG | 0.117 | 0.0202 | 0.163 | 0.397 | 0.0521 | 0.85 | 0.0425 | 0.0299 | 0.0373 | -0.0545
CGGAACA | -0.0257 | 0.017 | 0.369 | 0.45 | 0.0123 | 1.29 | -0.0602 | -0.027 | -0.0944 | 0.0204
TTGTATT | -3.37 | -3.53 | -0.647 | -2.91 | -2.97 | -0.443 | -3.72 | -0.449 | 0.0135 | -0.85
GTTCCAC | 0.032 | 0.0505 | 0.303 | 0.987 | -0.0258 | 1.73 | -0.00304 | -0.0133 | 0.107 | 0.112
TGAATCG | -0.0577 | -0.089 | -0.895 | -0.332 | 0.0115 | -1.25 | 0.164 | -0.195 | -0.0141 | -0.0799
GTCAGCA | -0.0067 | 0.147 | 0.273 | 0.626 | 0.077 | 0.857 | 0.0741 | 0.101 | 0.0185 | 0.0997
GTGAGAT | 0.214 | 0.177 | 0.712 | 1.72 | 0.236 | 2.14 | 0.448 | 0.223 | 0.272 | 0.34
